# PubChem BioAssay AID1030 (National Center for Advancing Translational Sciences (NCATS), 2008)
# The campaign covered roughly 220,000 compounds. About 16,000 (7.3%) were called active. This list was built around the results that the source calls inconclusive (neither active nor inactive); the mix of calls is not that of the screen. Calls follow the shape of the dose curve; as a rule, active = well fitted inhibition curve with a large enough effect (not every such curve was filed as active); inconclusive = small, poorly fitted or top-dose-only effect, or another doubt; inactive = no such curve, though single readings can be large or run the other way. No potency is given beside an inconclusive call; the fits are too rough.
# Molecular target: Aldehyde dehydrogenase 1A1 (Homo sapiens) (UniProt P00352)
# UniProt P00352, sequence (P00352 whole entry, looked up): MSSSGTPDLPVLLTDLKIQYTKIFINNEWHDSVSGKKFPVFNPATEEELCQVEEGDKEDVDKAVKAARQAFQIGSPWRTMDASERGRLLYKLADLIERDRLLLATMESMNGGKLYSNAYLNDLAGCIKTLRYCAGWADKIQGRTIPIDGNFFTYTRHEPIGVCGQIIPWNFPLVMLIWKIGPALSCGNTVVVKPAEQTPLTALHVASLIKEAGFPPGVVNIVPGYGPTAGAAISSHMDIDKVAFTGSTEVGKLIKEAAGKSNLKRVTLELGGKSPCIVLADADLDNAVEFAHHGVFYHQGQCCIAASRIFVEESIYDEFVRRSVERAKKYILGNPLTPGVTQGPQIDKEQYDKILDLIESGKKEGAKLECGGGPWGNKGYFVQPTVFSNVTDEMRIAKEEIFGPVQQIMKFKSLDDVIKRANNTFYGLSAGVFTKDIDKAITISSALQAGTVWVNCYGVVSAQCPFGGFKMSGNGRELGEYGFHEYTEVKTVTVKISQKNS
# Experiment: qHTS Assay for Inhibitors of Aldehyde Dehydrogenase 1 (ALDH1A1);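 as to activity, negative = inhibition: plate controls were no enzyme wells and a reference inhibitor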
# Settings: Purified ALDH1A1, NADH fluorescence, propionaldehyde substrate; series mostly up to 75.3 µM
# Potency is read from the fitted curve at half-maximal effect; tags tell the direction and shape of the fitted curve.
Compound,Potency,"activity, negative = inhibition"
N#CC1=C(N)C(C#N)(C#N)[C@H](c2cccnc2)[C@H]2CN(C(=O)OCc3ccccc3)CC=C12,"inconclusive [inhibitor, partial curve]",–
CN(Cc1ccccc1)S(=O)(=O)c1ccc(NC(=S)NC(=O)C(C)(C)C)cc1,active: 12.6 µM,–
O=C(Cc1noc2ccccc12)NNC(=S)Nc1ccc(Cl)cc1,active: 25.1 µM,–
Nc1c(-c2cccc([N+](=O)[O-])c2)nc2ccccn12,active: 7.51 µM,–
COc1ccc(CN(C)c2nc(-c3cccnc3)nc3ccccc23)cc1OC,"inconclusive [inhibitor, partial curve]",–
Oc1cc2c(cc1O)[C@H](c1ccccc1)CNCC2,inactive,–
C=CCn1c(SCC(=O)c2ccc(Cl)cc2)nnc1-c1ccc2c(c1)OCO2,"inconclusive [inhibitor, partial curve, poor fit]",–
COC(=O)CC1Oc2cc3oc4c5ccccc5oc(=O)c4c3cc2O1 (stereo not given),"inconclusive [inhibitor, partial curve]",–
CCOC(=O)CNCCC(=O)c1ccc(Br)cc1,active: 0.282 µM,–
COc1ccc(NC(=O)C(Cl)=C(Cl)Cl)cn1,"inconclusive [inhibitor, single point]",–
O=C1Cc2ccccc2Sc2ccc(O)cc21,"inconclusive [inhibitor, single point]",–
O=C(O)C1SCCN1S(=O)(=O)c1ccc(N=NN2CCOCC2)cc1 (stereo not given),"inconclusive [inhibitor, partial curve]",–
CCN(CC)CCCN1C=C2C(=O)C(C)(OC(=O)CCc3ccccc3)C(=O)C=C2C=C1c1ccc(C#N)cc1 (stereo not given),–,inactive: -1.52% [at 13.5 µM]
O=C(O)c1c(-c2ccc(Cl)cc2)cn2ccccc12,"inconclusive [inhibitor, partial curve]",–
Cc1ccnc(N2C(=O)c3ccccc3C2Nc2ccc3c(c2)OCCO3)c1 (stereo not given),inactive,–
COc1ccc(S(=O)(=O)c2ccc(OC)cc2)cc1,inactive,–
CCN(CC)CCc1c(C)[nH]c(C(=O)OCc2ccccc2)c1C,active: 20 µM,–
Cn1c(=O)c2c(nc(CN3CCN(c4ccccc4)CC3)n2Cc2ccccc2F)n(C)c1=O,"inconclusive [inhibitor, single point]",–
Cc1cc(=O)c2ccccc2[nH]1,inactive,–
COCCn1nnnc1C(c1ccccc1)N1CCN(c2ccccc2)CC1 (stereo not given),"inconclusive [inhibitor, single point]",–
COCCNC(=O)C(c1ccc(C)o1)N(C(=O)c1snc(C(N)=O)c1N)c1ccc(C)c(C)c1 (stereo not given),"inconclusive [inhibitor, partial curve]",–
COCCCN(CC(=O)Nc1ccc(N2CCOCC2)cc1)S(=O)(=O)c1ccc(Cl)cc1,"inconclusive [inhibitor, single point]",–
COCc1ccc(CN2CCCC(CCC(=O)NCc3ccc(C)o3)C2)o1 (stereo not given),"inconclusive [inhibitor, single point]",–
CCCCCNC(=O)c1ccc2c(=O)n(CCCN3CCCC3=O)c(=S)[nH]c2c1,"inconclusive [inhibitor, partial curve]",–
Cc1ccc(S(=O)(=O)N2CCC(C(=O)NCCc3ccc(S(N)(=O)=O)cc3)CC2)cc1,"inconclusive [inhibitor, single point]",–

Compound,Potency,"activity, negative = inhibition"
CCOc1ccc(S(=O)(=O)NCCC(=O)OCC(=O)N2CC(=O)Nc3ccccc32)cc1,"inconclusive [inhibitor, partial curve]",–
Cc1ccccc1C(=O)NNc1ccc([N+](=O)[O-])cc1,"inconclusive [inhibitor, partial curve]",–
O=C(NC(=S)Nc1ccc(Cc2ccncc2)cc1)c1ccc(F)cc1,active: 20 µM,–
CS/C(Nc1cc(Cl)ccc1Cl)=C(/C#N)C(=O)c1ccco1,"inconclusive [inhibitor, single point]",–
c1ccc2c(N3CCOCC3)nc(-c3ccncc3)nc2c1,inactive,–
CCc1ccccc1N(C1=NCCCS1)S(=O)(=O)c1ccc(C(C)(C)C)cc1,active: 0.794 µM,–
CCOC(=O)c1nn(-c2ccccc2C)c(=O)c(C#N)c1C,inactive,–
Cc1nc(-c2coc3c(CN(C)C)c(O)ccc3c2=O)cs1,"inconclusive [inhibitor, partial curve]",–
Cc1ccc(CC(=O)Nc2ccc(OC(F)F)c(Cl)c2)cc1C,"inconclusive [inhibitor, single point]",–
O=C(O)CSc1ncnc2c1oc1ccccc12,inactive,–
CC1CCCN(S(=O)(=O)c2ccc(C(=O)Nc3nnc(-c4ccncc4)o3)cc2)C1 (stereo not given),"inconclusive [inhibitor, single point]",–
Oc1ccc(NC(=S)N=Nc2c(O)[nH]c3ccccc23)cc1,inactive,–
CCCCc1cc(=O)oc2cc(OS(C)(=O)=O)ccc12,"inconclusive [inhibitor, single point]",–
Cc1cccc(N2CCc3c2nc2ccc(Br)cc2c3N)c1,"inconclusive [inhibitor, single point]",–
C#CCNc1cc(C)nc2ncnn12,inactive,–
CCOC(=O)c1cnc2c(C)c(Cl)ccc2c1Nc1ccc(S(=O)(=O)Nc2ncccn2)cc1,inactive,–
COCCNC(=O)/C(C#N)=C/c1c(N2CC(C)OC(C)C2)nc2ccccn2c1=O (stereo not given),"inconclusive [inhibitor, full curve]",–
COc1ccc(C2C(=O)c3ccccc3C2=Nc2ccc(Br)cc2)cc1 (stereo not given),active: 28.2 µM,–
CCCCC(=O)Nc1ccc2c(c1)nc1n2CCSC1,active: 17.8 µM,–
Cc1cc(C)c(C#N)c(SCc2nc3ccccc3[nH]2)n1,"inconclusive [inhibitor, partial curve]",–
CC1=C(C(=O)Nc2ccccc2)C(c2cccs2)C(C#N)=C(SCC#N)N1 (stereo not given),active: 22.4 µM,–
Fc1ccc(/C=N/N2CCOCC2)c(F)c1,inactive,–
COc1ccccc1CNC(=O)C(C)NS(=O)(=O)c1ccc(Br)cc1 (stereo not given),active: 28.2 µM,–
CC(=O)c1cc2c(cc1NS(=O)(=O)c1ccccc1F)OCO2,"inconclusive [inhibitor, full curve, poor fit]",–
CN(Cc1ccccc1)C(=O)COC(=O)Cn1cnc2ccccc21,"inconclusive [inhibitor, single point]",–

Compound,Potency,"activity, negative = inhibition"
COc1ccc2[nH]c3c(NCCC4=CCCCC4)ncnc3c2c1,"inconclusive [inhibitor, partial curve]",–
O=C(CNC(=O)C1CCCCC1)OCc1cc(=O)oc2ccc3ccccc3c12,"inconclusive [inhibitor, full curve]",–
C/C(=N\Nc1nc2ccccc2[nH]1)c1cc2ccccc2o1,inactive,–
Cc1ccccc1NC(=O)CN1C(=O)S/C(=C\c2ccc(-c3cc(C(=O)O)ccc3C)o2)C1=O,active: 28.2 µM,–
COc1ccc(/C=C/C(=O)Nc2ccccc2)cc1S(=O)(=O)N1CCOCC1,"inconclusive [inhibitor, partial curve, poor fit]",–
CN(C)S(=O)(=O)c1cccc(NC(=O)c2cc(-c3cccs3)nn2-c2ccccc2)c1,active: 22.4 µM,–
Cc1ccc(/C=N/Nc2ccc(C(=O)O)cc2)s1,"inconclusive [inhibitor, partial curve]",–
CCCCCOc1ccccc1C(=O)NCCC(=O)O,inactive,–
COCCNC(=O)C(c1cccs1)N(C(=O)Cn1nnc2ccccc21)c1cccc(C(C)=O)c1 (stereo not given),"inconclusive [inhibitor, single point]",–
O=C(NC1CCCC1)C(c1ccccc1)N(Cc1cccnc1)C(=O)Cc1cccs1 (stereo not given),inactive,–
CC1(C)Cc2c(c(-c3ccco3)[nH]c(=O)c2C#N)CS1,active: 5.62 µM,–
Cc1nc2ncnn2c(C)c1CCC(=O)N1CCc2ccccc2C1,active: 2.24 µM,–
Cn1c(=O)c(-c2cccs2)nc2cnc(N3CCNCC3)nc21,"inconclusive [inhibitor, partial curve]",–
O=C(CNCC1CCCCC1)Nc1ccc(OC(F)(F)F)cc1,"inconclusive [inhibitor, single point]",–
Fc1ccccc1N1CCN(c2nc(-c3cccs3)nc3ccccc23)CC1,"inconclusive [inhibitor, single point]",–
CC(=O)Nc1cccc(NC(=O)c2c(-c3ccccc3Cl)noc2C)c1,inactive,–
CCc1ccc(OCc2nnc(SCC(=O)NCc3ccco3)o2)cc1,inactive,–
COc1ccc(C(=O)CSc2nnc(NC(=O)C3CC(=O)N(c4ccccc4C)C3)s2)cc1 (stereo not given),active: 11.2 µM,–
N#CCC(=N)N1CCN(c2ccc(F)cc2)CC1,active: 11.2 µM,–
CNc1nc(-c2ccc3c(c2)CCN3C(=O)c2ccc(F)cc2)cs1,"inconclusive [inhibitor, single point]",–
CC1(C)Cc2c(sc3nc[nH]c(=O)c23)CO1,inactive,–
CSc1cc(-c2ccc(Cl)cc2)[nH]c(=O)c1C#N,"inconclusive [inhibitor, single point]",–
CCOc1ccc(-c2nnc(SCc3nc4ccccc4[nH]3)n2N)cc1,"inconclusive [inhibitor, single point]",–
COc1ccc2c(C)cc(SCC(=O)Nc3ncc(Cl)cc3Cl)nc2c1,"inconclusive [inhibitor, partial curve]",–
O=C(Nc1cccc(Br)c1)c1ccc2nc(N3C(=O)CCC3=O)sc2c1,"inconclusive [inhibitor, single point]",–
